According to US20250326848A1 (SHANGHAI HENLIUS BIOTECH, published 2025):
Substitutions are numbered along the chain they refer to. Names may count otherwise.

B1: 10A4 VHH-Fc (bivalent chimeric anti-PDL1 antibody) (Fc fusion)
heavy: QVKLEESGGGLVMAGGSLRLSCAASGGPFMSYAMGWFRQAPGKEREFVAAIRWNGISTFYADSVKGRFTVSRDNGKNMAFLQMNSLKPEDTAVYYCAAAQTIVTVPENYEYHYWGQGTQVTVSS[letters of human IgG1 Fc not shown]
notes: expressed in ExpiCHO, Protein A purified; also called 10A4-chimera; chimeric 10A4
B2: Humanized 10A4 GLEF-N2T (VHH-Fc) (Fc fusion)
heavy: EVQLVESGGGLVQPGGSLRLSCAASGGPFMSYAMGWVRQAPGKGLEFVAAIRWTGISTFYADSVKGRFTISRDNSKNTLYLQMNSLRAEDTAVYYCAAAQTIVTVPENYEYHYWGQGTQVTVSS[letters of human IgG1 Fc not shown]
B3: Humanized 10A4 GLEF VHH-Fc (Fc fusion)
heavy: B2 heavy with T54N
notes: Humanized on IGHV3-23*04, keeps llama Phe47 (Kabat); bivalent VHH-Fc
B4: Humanized 10A4 GLEF-N2S VHH-Fc (Fc fusion)
heavy: B2 heavy with T54S
notes: CDR2 asparagine changed to serine; bivalent VHH-Fc
B5: Humanized 10A4 GLEF-N2S-FDY VHH-Fc (Fc fusion)
heavy: B2 heavy with T54S, Y111F, H112D
notes: 10A4-GLEF-N2S with Tyr100Phe and His101Asp (Kabat numbering); bivalent VHH-Fc
B6: 2F9 VHH-Fc (Fc fusion)
heavy: B2 heavy with E1Q, L11V, G16R, V37F, G44E, L45R, T54S, Y111F, H112D
B7: 1G12 VHH-Fc (Fc fusion)
heavy: QVQLVESGGGVVQPGRSLRLSCAASGGPFMSYAMGWFRQAPGKEREFVAAIRWSGLSTFYADSVKGRFTISRDNSKNTLYLQMNSLRAEDTAVYYCAAAQTIVTVPENYNFDYWGQGTQVTVSS[letters of human IgG1 Fc not shown]
B8: 2H4 VHH-Fc (Fc fusion)
heavy: B7 heavy with S54N, L56I, N110H
notes: also called 2H4-Fc
B9: 5G10 VHH-Fc (Fc fusion)
heavy: B7 heavy with L56A, N110E
B10: 1H2 VHH-Fc (Fc fusion)
heavy: B7 heavy with Q100P, N110E
B11: 5D8 VHH-Fc (Fc fusion)
heavy: B7 heavy with L56Q, E107S, N110E
B12: 1F6 VHH-Fc (Fc fusion)
heavy: B7 heavy with L56K, N108S, N110E
B13: 1E4 VHH-Fc (Fc fusion)
heavy: B7 heavy with S54N, L56I, N110E
B14: 1B2 VHH-Fc (Fc fusion)
heavy: B7 heavy with L56E, Y109K, N110E
B15: 3D5 VHH-Fc (Fc fusion)
heavy: B7 heavy with L56H, V103S, N110E
notes: also called 3D5-Fc

molecular target: T1, human PDL1 expressed on CHO cells (human, UniProt Q9NZQ7); experiment: cell-based or functional assay

| EC50; whole cell PDL1/PD1 blocking assay, NFAT luciferase reporter (RLU) [nM] | Binder |
| --- | --- |
| 0.242 | B1 |

molecular target: T1, human PDL1 expressed on CHO cells; experiment: cell-based or functional assay; remark: another data set of the same source
T1 sequence (Q9NZQ7 19-290 limits assumed): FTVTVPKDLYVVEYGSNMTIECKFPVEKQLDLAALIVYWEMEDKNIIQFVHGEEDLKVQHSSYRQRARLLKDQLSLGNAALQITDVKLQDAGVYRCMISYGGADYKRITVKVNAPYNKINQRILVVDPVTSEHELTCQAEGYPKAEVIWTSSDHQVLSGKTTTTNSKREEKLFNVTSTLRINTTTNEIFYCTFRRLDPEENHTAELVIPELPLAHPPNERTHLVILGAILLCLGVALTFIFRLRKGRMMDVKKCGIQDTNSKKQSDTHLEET

| EC50; whole cell PDL1/PD1 blocking assay, NFAT luciferase reporter (RLU) [nM] | Binder |
| --- | --- |
| 3.79 | B1 |
| 12.1 | B2 |
| 8.3 | B3 |
| 7.37 | B4 |

molecular target: T1, human PDL1 expressed on CHO cells; experiment: cell-based or functional assay; remark: another data set of the same source

| EC50; whole cell PDL1/PD1 blocking assay, NFAT luciferase reporter (RLU) [nM] | Binder |
| --- | --- |
| 0.824 | B4 |

molecular target: T2, Human PDL1-His (recombinant human PDL1 ECD with C-terminal poly histidine tag, expressed in-house) (human, UniProt Q9NZQ7 fragment); experiment: BLI (Octet), recombinant h-PDL1
T2 construct: also called h-PDL1-His; h-PDL1-his; not shown: poly histidine tag at the C-terminus
From the text: (§1) A kinetic buffer only well was set as a reference well for subtraction during data processing. Data were fitted with a 1:1 Langmuir model for association and dissociation using Rmax linked global fitting for each antibody-antigen binding.

| Kd [nM] | koff [s⁻¹] | kon [M⁻¹ s⁻¹] | Binder |
| --- | --- | --- | --- |
| 1.49 | 0.000333 | 224000 | B1 |
| 6.83 | 0.0019 | 278000 | B2 |
| 1.54 | 0.00035 | 228000 | B3 |
| 1.42 | 0.000322 | 226000 | B4 |
| 2.81 | 0.00093 | 331000 | B5 |

molecular target: T2, Human PDL1-His (recombinant human PDL1 …); experiment: BLI (Octet), hPDL1 ECD, bivalent VHH-Fc
From the text: as §1

| koff [s⁻¹] | kon [M⁻¹ s⁻¹] | Kd [nM] | Binder |
| --- | --- | --- | --- |
| 7.83e-05 | 458000 | – | B1 |
| 0.000556 | 386000 | 1.44 | B6 |
| 0.0014 | 203000 | 6.91 | B7 |
| 0.00041 | 472000 | 0.869 | B8 |
| 0.00195 | 211000 | 9.26 | B9 |
| 0.0012 | 381000 | 3.16 | B10 |
| 0.0019 | 257000 | 7.42 | B11 |
| 0.000801 | 476000 | 1.68 | B12 |
| 0.000397 | 463000 | 0.856 | B13 |
| 0.000883 | 555000 | 1.59 | B14 |
| 0.000639 | 502000 | 1.27 | B15 |

molecular target: T2, Human PDL1-His (recombinant human PDL1 …); experiment: BLI (Octet Red 96), antibody on AHC sensor, 1:1 fit
From the text: as §1

| Kd [nM] | koff [s⁻¹] | kon [M⁻¹ s⁻¹] | Binder |
| --- | --- | --- | --- |
| 0.934 | 0.000323 | 346000 | B1 |

molecular target: T3, Cyno PDL1-His (recombinant cynomolgus PDL1 with C-terminal poly histidine tag, Acro Biosystems) (cynomolgus monkey, UniProt G7PSE7 19-238); experiment: as above
T3 construct: also called cynomolgus monkey PDL1
T3 sequence (G7PSE7 entry or part of it limits assumed): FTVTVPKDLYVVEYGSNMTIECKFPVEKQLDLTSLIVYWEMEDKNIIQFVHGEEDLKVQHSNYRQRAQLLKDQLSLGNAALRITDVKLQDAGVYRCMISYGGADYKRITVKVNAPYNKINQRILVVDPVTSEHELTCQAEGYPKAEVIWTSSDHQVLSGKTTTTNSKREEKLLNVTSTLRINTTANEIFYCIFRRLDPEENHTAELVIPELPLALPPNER
From the text: as §1

| Kd [nM] | koff [s⁻¹] | kon [M⁻¹ s⁻¹] | Binder |
| --- | --- | --- | --- |
| 0.942 | 0.000327 | 347000 | B1 |
